In PubChem BioAssay AID488969 (Vanderbilt High Throughput Screening Facility, 2010):
Over roughly 110,000 compounds, “z-score” has its median near -0.1; the highest 2% begin near 2. This is one part of the list. Active and inactive are the calls of the source.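 Rule for the calls: active = z-score in the third read window above 3 or below -3; inactive = the rest.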

These compounds were tested against Metabotropic glutamate receptor 8 (Rattus norvegicus) (UniProt P70579) (assay: rat mGluR8 modulators via GIRK flux, primary screen, cell-based, thallium flux, HTS (AID 488969)). Details: HEK293 rat mGluR8, GIRK (G protein-gated inwardly rectifying potassium channel) thallium flux, FluoZin2; at 10 µM; stronger effect = higher value; submaximal glutamate (EC20) added with thallium.
Chain of UniProt P70579 (P70579 whole entry, looked up): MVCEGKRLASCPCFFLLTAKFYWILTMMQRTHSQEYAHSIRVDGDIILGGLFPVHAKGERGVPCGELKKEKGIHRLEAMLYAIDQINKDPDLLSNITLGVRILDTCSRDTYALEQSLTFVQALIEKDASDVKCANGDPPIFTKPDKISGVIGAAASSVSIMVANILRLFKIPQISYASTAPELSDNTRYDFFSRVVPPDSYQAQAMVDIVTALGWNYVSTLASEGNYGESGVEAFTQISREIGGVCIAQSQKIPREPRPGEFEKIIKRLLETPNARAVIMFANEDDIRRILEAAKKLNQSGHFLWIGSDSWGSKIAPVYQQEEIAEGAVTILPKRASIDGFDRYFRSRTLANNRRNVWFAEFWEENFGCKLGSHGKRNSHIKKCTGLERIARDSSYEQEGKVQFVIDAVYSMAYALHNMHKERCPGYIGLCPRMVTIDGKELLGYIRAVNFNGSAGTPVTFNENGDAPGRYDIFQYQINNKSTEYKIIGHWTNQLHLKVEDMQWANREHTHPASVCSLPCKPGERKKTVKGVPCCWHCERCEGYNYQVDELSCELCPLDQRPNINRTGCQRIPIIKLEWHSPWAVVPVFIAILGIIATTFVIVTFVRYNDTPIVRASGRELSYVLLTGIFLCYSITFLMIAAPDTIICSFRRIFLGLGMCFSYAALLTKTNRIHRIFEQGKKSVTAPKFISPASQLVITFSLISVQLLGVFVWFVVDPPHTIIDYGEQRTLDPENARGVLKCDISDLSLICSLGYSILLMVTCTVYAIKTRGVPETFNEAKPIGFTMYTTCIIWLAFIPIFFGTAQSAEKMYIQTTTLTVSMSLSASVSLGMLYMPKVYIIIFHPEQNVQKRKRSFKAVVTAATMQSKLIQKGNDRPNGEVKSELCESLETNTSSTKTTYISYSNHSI

Structure (SMILES)	z-score
CC(NC(=O)Nc1ccc2c(c1)OCO2)C1CCCO1 (stereo unspecified)	0.267
OC(COc1ccccc1)CSc1ncn[nH]1 (stereo unspecified)	0.139
COC(=O)COc1ccsc1C(=O)OC	1.11
O=C(Nc1nnc(SCc2ccccc2)s1)c1ccco1	-0.221
CSc1nnc(CSc2cc(C)nc(N(C)C)n2)o1	-0.325
Cc1cc(C)c(S(=O)(=O)N(CC(=O)N2CCOCC2)C2CCCCC2)c(C)c1	-0.653
COc1cc(C(=O)OCn2nnc3ccccc3c2=O)cc(OC)c1OC	-0.433
COc1ccccc1C(=O)NC(=S)NNC(=O)c1sc2ccccc2c1Cl	active: 3.35
CCC(Sc1nnc2c3ccccc3n(CC)c2n1)C(=O)Nc1sc2c(c1C#N)CCCC2 (stereo unspecified)	0.544
Cc1oc2ccc(NS(=O)(=O)c3ccccc3)cc2c1C(=O)Nc1ccccc1	-0.597
CC(C(=O)NCC1(c2ccccc2)CCCC1)N1CCOCC1 (stereo unspecified)	-0.000325
Cc1ccc(NC(=O)C2CCN(S(=O)(=O)c3cccc4nonc34)CC2)nc1	-0.164
CN1CCN(NC(=O)C23CC4CC(CC(C4)C2)C3)CC1	-0.194
CC(C)(C)NC(=O)CSC(=Nc1ccccc1F)NC#N	-0.194
O=c1cc(N2CCN(c3ccccc3)CC2)[nH]c(=O)n1-c1ccccc1Cl	-0.653
NS(=O)(=O)c1ccc(CCNC(=O)CSc2ccc(Cl)cc2)cc1	-0.509

Structure (SMILES)	z-score
COc1cccc(-c2nc3ccccc3c(=O)n2NC(=O)c2cccnc2Cl)c1	-0.295
CC(C)NS(=O)(=O)c1ccc(NC(=O)Cc2cccs2)cc1	-0.81
Nc1nnc(SCC(=O)N2CCN(Cc3ccccc3)CC2)s1	0.349
CCCC(=O)Nc1nnc(SCC(=O)Nc2ccc3c(c2)OCO3)s1	0.114
O=C(N/N=C\CCc1ccccc1)c1ccco1	0.322
COc1ccc(-c2sc(NC(C)=O)nc2-c2ccccc2)cc1	-0.156
CN1CCC(Oc2ccccc2Sc2ccc(C(F)(F)F)cc2)CC1	0.595
N#C/C(=C\c1cccc2ccccc12)c1nn(-c2ccccc2)c(N)c1C#N	-0.268
Cc1[nH]c2ccccc2c1/C=N/Nc1nc(Nc2ccccc2)nc(N2CCOCC2)n1	-0.457
CCCC(C)C1C(C#N)=C(N)Oc2cc(C)oc(=O)c21 (stereo unspecified)	-0.602
CCOC(=O)N1CCN(C(=O)CSCC(=O)Nc2nc(-c3ccc(OC)cc3)cs2)CC1	-0.184
O=C(N/N=C/c1ccco1)c1cc(-c2cccs2)[nH]n1	-1.21
COc1ccccc1N(CC(=O)Nc1ccc2c(c1)OCCO2)S(C)(=O)=O	0.517
NC(=O)CSc1nc2cc3c(cc2c(=O)n1CCCC(=O)NCc1ccc2c(c1)OCO2)OCO3	0.0633
CCn1c(SCc2cccc(C(=O)O)c2)nnc1-c1ccccc1	-0.651
